# Screen size: about 16,000 compounds; about 120 (0.75%) were called active. Not shown: some 4% with an inconclusive outcome. Calls follow the shape of the dose curve; as a rule, active = well fitted inhibition curve with a large enough effect; inconclusive = small, poorly fitted or top-dose-only effect; inactive = no such curve, though single readings can be large or run the other way. The list shows a part of the results.
# Molecular target: Rap guanine nucleotide exchange factor 3 (Homo sapiens) (UniProt O95398)
# Experiment: Validation qHTS for antagonist of cAMP-regulated guanine nucleotide exchange factor 3 (EPAC1); also: nearly all actives have a fitted effect of over 75% in size;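 as to activity change, negative = inhibition: plate controls were DMSO for no effect and ATA control for full effect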
# Settings: EPAC1 Rap1B-BODIPY-GDP exchange, fluorescence; series mostly up to 150 µM; activity change, negative = inhibition: at the top concentration
# Outline: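 Nucleotide exchange followed as fluorescence loss when BODIPY-GDP leaves Rap1B (480 nm excitation, 540 nm emission), read at 5 min intervals over 30 min. Reaction: 100 nM EPAC1, 250 nM RAP1B-BODIPY-GDP, 50 uM GDP; ATA and DMSO define normalization.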
# Potency is read from the fitted curve at half-maximal effect.
# UniProt O95398, sequence (O95398 whole entry, looked up): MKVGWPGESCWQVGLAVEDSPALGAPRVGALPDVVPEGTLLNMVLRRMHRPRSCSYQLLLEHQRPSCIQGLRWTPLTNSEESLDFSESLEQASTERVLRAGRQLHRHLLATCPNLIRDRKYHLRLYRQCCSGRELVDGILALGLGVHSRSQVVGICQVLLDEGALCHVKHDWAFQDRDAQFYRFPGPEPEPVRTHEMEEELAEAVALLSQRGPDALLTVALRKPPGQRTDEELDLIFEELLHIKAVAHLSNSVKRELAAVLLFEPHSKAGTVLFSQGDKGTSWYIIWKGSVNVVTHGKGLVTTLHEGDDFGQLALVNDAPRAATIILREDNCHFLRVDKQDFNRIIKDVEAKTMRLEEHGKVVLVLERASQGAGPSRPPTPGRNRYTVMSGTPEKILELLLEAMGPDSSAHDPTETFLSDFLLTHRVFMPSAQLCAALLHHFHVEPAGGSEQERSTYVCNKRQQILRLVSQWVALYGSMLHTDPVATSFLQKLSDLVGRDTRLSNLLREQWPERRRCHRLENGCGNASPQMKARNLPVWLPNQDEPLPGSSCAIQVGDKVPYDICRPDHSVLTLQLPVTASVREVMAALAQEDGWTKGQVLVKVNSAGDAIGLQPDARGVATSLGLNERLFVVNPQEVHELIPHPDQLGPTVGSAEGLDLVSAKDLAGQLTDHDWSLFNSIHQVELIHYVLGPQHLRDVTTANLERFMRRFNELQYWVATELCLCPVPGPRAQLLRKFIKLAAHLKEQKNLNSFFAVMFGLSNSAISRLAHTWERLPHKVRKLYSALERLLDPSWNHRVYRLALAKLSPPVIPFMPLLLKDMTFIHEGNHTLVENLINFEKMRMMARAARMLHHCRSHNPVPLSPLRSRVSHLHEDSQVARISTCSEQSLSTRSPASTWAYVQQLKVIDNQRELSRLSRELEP
SMILES,"activity change, negative = inhibition",Potency
CC(C)[C@]1(NC(=O)[C@@H]2C=C3c4cccc5[nH]cc(c45)C[C@H]3N(C)C2)O[C@@]2(O)C3CCCN3C(=O)[C@H](Cc3ccccc3)N2C1=O (stereo partly drawn),inactive: 19%,
CCOC(=O)NC(O)C(Cl)(Cl)Cl (stereo not drawn),inactive: 8.68%,
COc1ccc(C(c2ccc(OC)cc2)C(Cl)(Cl)Cl)cc1,inactive,
O=C(Oc1ccccc1)N1CCC2(CCCN(Cc3ccccc3)C2)CC1,inactive: 7.73%,
COC(=O)NC(=S)Nc1ccccc1NC(=S)NC(=O)OC,inactive: 18.6%,
CCN1C[C@]2(COC)[C@H](O)C[C@H](OC)[C@]34C1C([C@H](OC)[C@H]23)[C@]1(OC(C)=O)C2[C@@H](OC(=O)c3ccccc3)C(O)(C[C@H]24)[C@@H](OC)[C@@H]1O,inactive: 14.1%,
CCC1(CC)C(=O)NC(=O)N(C)C1=O,inactive: 22%,
COC(C)C(O)(C(=O)OC1=CCN2CC[C@H](O)[C@H]12)C(C)C (stereo partly drawn),inactive: 13.1%,
CCC1CN2CCC1CC2C(O)c1ccnc2ccccc12 (stereo not drawn),inactive: 12%,
COc1ccccc1N1CCNCC1,inactive,
CC1(C)S[C@H]2[C@@H](N)C(=O)N2[C@H]1C(=O)O,inactive: 15.7%,
CC(=O)c1c(O)c(C)c(O)c(Cc2c(O)c3c(c(C(=O)/C=C/c4ccccc4)c2O)OC(C)(C)C=C3)c1O,inactive,
CC(=O)[C@H]1CC[C@H]2[C@@H]3CC[C@H]4C[C@H](O)CC[C@]4(C)[C@H]3C(=O)C[C@]12C,inactive,
CCOc1cc(C=O)ccc1O,inactive: -6.43%,
C=C1C[C@@H]2[C@H](CC[C@]3(C)C(=O)CC[C@@H]23)[C@@]2(C)C=CC(=O)C=C12,inactive: 24%,
CC1CC2CC(=O)C3CCCN4CCCC2[C@]34C1 (stereo partly drawn),inactive: 15.9%,
CNC(C)Cc1ccccc1OC (stereo not drawn),inactive: 31.6%,
CC(=O)OC1C[C@@]2(C)C(c3ccoc3)C[C@H]3O[C@@]32[C@@]2(C)C(=O)C(O)=C3C(C)(C)C(=O)C=C[C@]3(C)C12 (stereo partly drawn),inactive: -4.89%,
COc1cc(C2c3cc4c(cc3C(O)C3COC(=O)C23)OCO4)cc(OC)c1O (stereo not drawn),inactive: 15.4%,
O=P(O)(O)C(Cl)(Cl)P(=O)(O)O,inactive,
C[C@]12C/C(=C/O)C(=O)C[C@@H]1CC[C@@H]1[C@@H]2CC[C@@]2(C)[C@H]1CC[C@]2(C)O,inactive: 6.7%,
CC(C)=CCN1CC[C@]2(C)c3cc(O)ccc3C[C@H]1[C@H]2C,inactive: 18.3% [at 320 µM],
C[C@H]1CNCCc2ccc(Cl)cc21,inactive: 10.6%,
O=C(O)c1cc[c]([Hg][Cl])cc1,inactive: 0% [at 75.8 µM],
FC(F)(F)c1cccc(N2CCNCC2)c1,inactive: -3.76%,

SMILES,"activity change, negative = inhibition",Potency
CC1=NN=C(c2ccc(N)cc2)c2cc3c(cc2C1)OCO3,inactive,
COc1cc(=O)n2c(c1C(=O)N(C)Cc1nonc1C)CCN(C(=O)C1C(C)(C)C1(C)C)CC2,inactive: -1.3%,
CC1CC(Cl)CCC1C(=O)OC(C)(C)C (stereo not drawn),inactive: 11.9%,
Cc1c(O)c(O)cc2c1CC=C1[C@]3(C)CC[C@]4(C)CC[C@@](C)(C(=O)O)CC4[C@]3(C)CC[C@]12C (stereo partly drawn),inactive: 12.8%,
NC(=O)[C@H](Cc1ccccc1)NC(=O)[C@H](Cc1c[nH]c2ccccc12)NC(=O)[C@@H]1CCCN1C(=O)[C@@H](N)Cc1ccc(O)cc1,inactive: 5.24% [at 15.3 µM],
O=C(c1ccco1)N1CCC2(CC1)CN(Cc1ccncc1)C2,inactive: 8.72%,
CCN(Cc1ccc(Cl)nc1)/C(=C/[N+](=O)[O-])NC,inactive: 18.1%,
C1CN(P2(N3CC3)=NP(N3CC3)(N3CC3)=NP(N3CC3)(N3CC3)=N2)CCO1 (stereo not drawn),inactive: 29.7%,
CNC(=O)Oc1cccc2c1OC(C)(C)C2,inactive: 8.37%,
C/C(O)=C(\C#N)C(=O)Nc1cc(Br)ccc1Br,inactive: 14.6% [at 75.8 µM],
CN1CC[C@]23c4c5ccc(O)c4O[C@H]2[C@@H](O)CC[C@H]3[C@H]1C5,inactive: -3.96% [at 320 µM],
COc1cc([C@@H]2c3cc4c(cc3[C@@H](O)[C@H]3COC(=O)[C@H]23)OCO4)cc(OC)c1O,inactive: 15.5%,
c1ccc2c(c1)Sc1ccccc1N2C[C@@H]1CN2CCC1CC2,inactive: 28.5%,
CN1CC[C@@]2(CCCN(C(=O)Oc3ccccc3)C2)C1,inactive: 34.6%,
OC[C@@H](O)[C@H]1O[C@@H]2O[C@@H](C(Cl)(Cl)Cl)O[C@@H]2[C@H]1O,inactive: -0.741%,
CCCC(C)(COC(N)=O)COC(=O)NC(C)C (stereo not drawn),inactive,
COc1ccc(CC2NCC(O)C2OC(C)=O)cc1 (stereo not drawn),inactive: -7%,
CCCC1CCCCN1 (stereo not drawn),inactive: 20%,
CN1C(=O)CC(=O)N(c2ccccc2)c2cc(Cl)ccc21,inactive: 15.9%,
CCC1(C)CC(=O)NC(=O)C1,inactive: 13.9% [at 75.8 µM],
CC1C(=O)OC2CCN3CC=C(COC(=O)[C@](C)(O)[C@]1(C)O)C23 (stereo partly drawn),inactive: 5.15%,
CCCCC/C=C\C/C=C\C/C=C\C/C=C\CCCC(=O)NCC(=O)O,inactive,
O=C(Nc1cccc(F)c1)N1CC2(CCN(C(=O)Oc3ccccc3)CC2)C1,inactive: -4.47%,
O=C(N[C@H]1N=C(c2ccccc2F)c2cccc3c2N(CC3)C1=O)c1cc2ccccc2[nH]1,inactive: -25%,
C=C1C([C@@]2(C)C(OC(C)=O)CC(=O)O[C@@](C)(COC(C)=O)C2CC(=O)OC)C(OC=O)C(OC(=O)C(OC(C)=O)C(C)CC)[C@]2(C)C(c3ccoc3)CC(=O)C12O (stereo partly drawn),inactive: -15.6%,

SMILES,"activity change, negative = inhibition",Potency
ClCCN(CCCl)c1ccc(C=Nc2ccc(/C=C/c3ccnc4ccccc34)cc2)cc1,inactive: -15.2%,
CS(=O)(=O)N1CCC2(CCCN(Cc3ccncc3)C2)CC1,inactive: 23.4%,
O=C1NCN(c2ccccc2)C12CCN(C[C@H]1COc3ccccc3O1)CC2,inactive: -7.13%,
CC(O)CN1CCN(CC(=O)[O-])CCN(CC(=O)[O-])CCN(CC(=O)[O-])CC1.[Gd+3] (stereo not drawn),inactive,
C[C@H]1C(=O)O[C@H]2CCN3CC=C(COC(=O)[C@](C)(O)[C@@]1(C)O)C23 (stereo partly drawn),inactive: 9.12%,
CC(=O)OC1C2C(OC(=O)Cc3ccccc3)C(C)CC2(OC(C)=O)C(=O)/C(C)=C/C2C(CC[C@@]13CO3)C2(C)C (stereo partly drawn),inactive: -0.931%,
OC(c1ccccc1)(c1ccccc1)C1CCNCC1,inactive: 10.1% [at 75.8 µM],
C[C@]12CCC(=O)C=C1CC[C@@H]1[C@@H]2CC[C@]2(C)C(=O)CC[C@@H]12,inactive,
CC1=CCCC2C1(C)CCC(C)C2(C)CC/C(C)=C/C[n+]1cn(C)c2c(N)ncnc21 (stereo not drawn),inactive: 5.58%,
COCC#CCN1CCCCC1c1cccnc1 (stereo not drawn),inactive: 14.4%,
NC(=O)OCCCc1ccccc1,inactive: -6.42%,
Nc1c(Cl)c(Cl)c(Cl)c(Cl)c1Cl,inactive: 28.6% [at 320 µM],
COc1ccc(NC(=O)N2CCC3(CC2)CCN(C(=O)Oc2ccccc2)CC3)cc1,inactive: -2.47%,
NC1CCc2cc(O)c(O)cc2C1 (stereo not drawn),inactive,
CC1CC(O)[C@]2(O)[C@]13CC(=O)OC[C@@]2(C)[C@@](C)(O)C(=O)C3 (stereo partly drawn),inactive: 11.4%,
Cc1cccc(C(C)c2cnc[nH]2)c1C (stereo not drawn),inactive: 13.9%,
COc1cc(OC)c(OC)cc1C=O,inactive,
O=C(O)[C@@H]1C[C@H]2C[C@@H](CP(=O)(O)O)CC[C@H]2CN1,inactive: 1.71%,
NN=C(N)N,inactive,
COc1cc2c(cc1O)CC1c3c(cc(O)c(OC)c3-2)CCN1C (stereo not drawn),inactive,
C#CC(C)(O)CC (stereo not drawn),inactive: 4.87%,
C[C@H](NC(=O)[C@@H](N)Cc1ccc(O)cc1)C(=O)NCC(=O)N(C)[C@@H](Cc1ccccc1)C(=O)N[C@H](CO)CCS(C)=O (stereo partly drawn),inactive: 14.9% [at 15.3 µM],
CN1C[C@@H](C(=O)N[C@@]2(C)O[C@]3(O)C4CCCN4C(=O)[C@@H](Cc4ccccc4)N3C2=O)C=C2c3cccc4[nH]cc(c34)C[C@@H]21 (stereo partly drawn),inactive: 7.81%,
Clc1ccc(C(c2ccc(Cl)cc2)C(Cl)(Cl)Cl)cc1,inactive,
COC[C@]12CN(C=O)C3C4C(OC)C1[C@@]3(C1CC3(O)C(OC)C(O)C4(OC(C)=O)C1C3OC(=O)c1ccccc1)[C@@H](OC)CC2O (stereo partly drawn),inactive: -13.9%,

SMILES,"activity change, negative = inhibition",Potency
CCC1CN2CCC1CC2C(O)c1ccnc2ccc(OC)cc12 (stereo not drawn),inactive: 3.61%,
COc1cc(N)c(Cl)cc1C(=O)NC1CN2CCC1CC2 (stereo not drawn),inactive: 7.14%,
C[N+]1(C)C2CCC1CC(OC(=O)c1c[nH]c3ccccc13)C2 (stereo not drawn),inactive: -6.06% [at 75.8 µM],
CC(Cc1cccc(C(F)(F)F)c1)NCCCc1ccccc1 (stereo not drawn),inactive: -0.579%,
c1ccc2sc(C3(N4CCCCC4)CCCCC3)cc2c1,inactive,
COc1ccc(CCN)cc1,inactive: 37.5%,
COc1ccc(NC(=O)N2CC3(CCN(C(=O)Oc4ccccc4)CC3)C2)cc1,inactive: 14.4%,
CC(O)C(C)OC(=O)[C@@H]1C[C@@H]2c3cccc4c3c(cn4C(C)C)C[C@H]2N(C)C1 (stereo partly drawn),inactive: 32.4%,
CCc1cc2c(s1)-n1c(C)nnc1CN=C2c1ccccc1Cl,inactive: 7.82%,
c1cc(CN2CCC3(CCNCC3)CC2)ccn1,inactive: 6.99%,
C[C@]12CCC(=O)C(O)=C1CC[C@@H]1[C@H]3CCC(=O)[C@@]3(C)CC[C@@H]12,inactive: 15.4%,
CN1CC(CO)=C[C@H]2c3cccc4[nH]cc(c34)C[C@H]21,inactive: 11.6%,
CN[C@@H]1C[C@H](c2ccc(Cl)c(Cl)c2)c2ccccc21,inactive: -15.5%,
C[C@H]1CC[C@]2(NC1)O[C@H]1C[C@H]3[C@@H]4CC[C@H]5C[C@@H](O[C@@H]6O[C@H](CO)[C@H](O[C@@H]7O[C@H](CO)[C@@H](O)[C@H](O[C@@H]8OC[C@@H](O)[C@H](O)[C@H]8O)[C@H]7O[C@@H]7O[C@H](CO)[C@@H](O)[C@H](O)[C@H]7O)[C@H](O)[C@H]6O)CC[C@]5(C)[C@H]4CC[C@]3(C)[C@H]1[C@@H]2C,inactive: -1.18%,
C[N+]1([O-])CCC[C@@H]1c1cccnc1 (stereo partly drawn),inactive: 27%,
O=C1CCO1,inactive,
O=C(CCCN1CCC(n2c(=O)[nH]c3ccccc32)CC1)c1ccc(F)cc1,inactive: 31.5% [at 75.8 µM],
O=C1C2CCN(CC2)C1(CO)CO,inactive: 5.23%,
CN1CC(CNC(=O)OCc2ccccc2)CC2c3cccc4c3c(cn4C)CC21 (stereo not drawn),inactive: 8.83%,
CCC1(CC)C(=O)NC(=O)NC1=O,inactive: 23.4%,
Oc1ccc2c3c1O[C@H]1c4[nH]c5c(c4C[C@@]4(O)[C@@H](C2)N(CC2CC2)CC[C@]314)C[C@]1(O)[C@H]2Cc3ccc(O)c4c3[C@@]1(CCN2CC1CC1)[C@@H]5O4,inactive: 7.24%,
O=C1C(Cl)=C(Cl)C(=O)C(Cl)=C1Cl,,active: 39.8 µM
c1csc(CN2CC[C@@]3(CCCNC3)C2)n1,inactive: 16.6%,

# — PubChem BioAssay AID1645882 (National Center for Advancing Translational Sciences (NCATS), 2021)
